# Data taken from publication PMC4336329 (PLoS ONE, 2015).
# Among all 310,000 compounds or so, about 2,200 (0.71%) showed an effect of 50% or more. Effects have a minus sign here. The list shows a part of the results.
# Biological target: human ether-à-go-go-related gene (hERG) potassium channel (human, UniProt Q12809)
# Assay: primary screen, population patch clamp on CHO cells stably expressing hERG
# Chain of human ether-à-go-go-related gene (hERG) potassium channel (Q12809 whole entry, looked up): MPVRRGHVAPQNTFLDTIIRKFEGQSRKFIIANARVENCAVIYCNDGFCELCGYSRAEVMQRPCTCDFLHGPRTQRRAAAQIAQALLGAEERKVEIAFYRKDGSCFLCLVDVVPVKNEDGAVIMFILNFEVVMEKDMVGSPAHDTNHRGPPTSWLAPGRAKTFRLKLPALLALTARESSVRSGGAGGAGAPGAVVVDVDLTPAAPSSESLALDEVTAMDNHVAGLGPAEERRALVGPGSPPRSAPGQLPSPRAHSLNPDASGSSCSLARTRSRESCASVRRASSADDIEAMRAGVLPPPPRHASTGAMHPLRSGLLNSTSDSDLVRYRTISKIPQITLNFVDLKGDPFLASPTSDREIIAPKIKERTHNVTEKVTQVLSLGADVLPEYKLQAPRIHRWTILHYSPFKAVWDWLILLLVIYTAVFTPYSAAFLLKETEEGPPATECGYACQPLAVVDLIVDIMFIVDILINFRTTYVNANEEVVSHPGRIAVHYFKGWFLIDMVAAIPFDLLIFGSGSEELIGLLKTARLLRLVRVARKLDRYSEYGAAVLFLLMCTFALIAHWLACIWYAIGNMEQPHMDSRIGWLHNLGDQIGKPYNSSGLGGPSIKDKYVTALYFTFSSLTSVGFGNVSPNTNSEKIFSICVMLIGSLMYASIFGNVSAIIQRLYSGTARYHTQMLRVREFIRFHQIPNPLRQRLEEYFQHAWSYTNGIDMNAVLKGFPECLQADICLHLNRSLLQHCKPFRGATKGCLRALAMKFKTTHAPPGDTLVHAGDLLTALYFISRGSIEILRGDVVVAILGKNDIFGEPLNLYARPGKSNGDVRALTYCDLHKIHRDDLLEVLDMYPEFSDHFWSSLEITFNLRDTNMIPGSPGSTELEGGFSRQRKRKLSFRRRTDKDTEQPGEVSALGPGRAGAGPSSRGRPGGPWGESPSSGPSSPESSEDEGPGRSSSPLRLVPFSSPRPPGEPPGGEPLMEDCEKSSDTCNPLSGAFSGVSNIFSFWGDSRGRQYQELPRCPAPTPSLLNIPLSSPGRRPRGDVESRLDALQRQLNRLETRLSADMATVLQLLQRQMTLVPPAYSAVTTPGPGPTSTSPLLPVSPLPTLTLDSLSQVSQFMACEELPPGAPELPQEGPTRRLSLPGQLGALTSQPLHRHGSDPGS
row,SMILES,"hERG current change (%, negative = inhibition) at 1uM [%]"
1,O=C(c1ccc(Cl)cc1)N1CCCC(c2ccccc2)=N1,5.75
2,CCN(CC)S(=O)(=O)c1cccc(-c2nnc(SCC#N)n2Cc2ccccc2)c1,-0.562
3,CCCCOc1ccccc1C1NC(=O)NC(C)=C1C(=O)OCCOC (centres unmarked),3.22
4,O=C1c2ccccc2C(Nc2ccc(-c3nc4ccccc4[nH]3)cc2)N1Cc1ccco1 (centres unmarked),12
5,Cc1ccc(S(=O)(=O)Nc2cc(C(=O)NCCN(C)C)ccc2N2CCCC2)cc1,3.78
6,CC(C)Cc1nnc(NC(=O)CCC(=O)NC2CCCCCCC2)s1,12.3
7,Cn1c[n+](C)cc1/C=N/O.[I-],15.2
8,CCCc1c(O)nc(SCC(=O)N2CCCCC2)[nH]c1=O,21.8
9,CCOC(=O)C(C)N1CC(=O)N(c2ccccc2)C1=O (centres unmarked),12.9
10,Cc1ccc(/C=N/NC(=O)CSc2nc3ccccc3c(=O)n2-c2ccccc2)s1,-2.86
11,COc1ccc(-c2cc(-c3ccc(N)cc3)nc(N)c2C#N)cc1OC,5.88
12,CCOC(=O)N1CCN(C(=O)CSCC(=O)Nc2nc(-c3ccc(OC)cc3)cs2)CC1,-8.03
13,Brc1cc(Cc2nnc(-c3ccccc3)o2)c(Br)s1,16.5
14,CCOC(=O)c1c(C)[nH]c(C(=O)OC(C)C(=O)NC2CCCCC2C)c1C (centres unmarked),5.79
15,COc1ccc(OC)c(S(=O)(=O)NCC(c2ccc3c(c2)OCO3)N2CCOCC2)c1 (centres unmarked),-0.985
16,COc1ccc(/C=N/NC(=O)CCn2cnc(-c3ccccc3)c2-c2ccccc2)cc1,-7.9
17,Cc1ccc(S(=O)(=O)N2CCN(C(=O)CN3C(=O)NC4(CCOc5ccccc54)C3=O)CC2)cc1 (centres unmarked),8.13
18,CCn1c(SCC(=O)NCC2CCCO2)nnc1-c1ccc(Cl)cc1 (centres unmarked),3.09
19,O=C(c1ccc(COCC(F)(F)F)cc1)N1CCN(c2ccccn2)CC1,9.82
20,CC(C)CNC(=O)c1ccccc1NC(=O)c1ccc(CN2CCOCC2)cc1,1.96
21,CCOC(=O)C(NC(C)=O)(Nc1ccc(S(=O)(=O)Nc2ncccn2)cc1)C(F)(F)F (centres unmarked),18.1
22,COc1ccc(CC(=O)Nc2sc3c(c2C(N)=O)CCCC3)cc1,-0.701

row,SMILES,"hERG current change (%, negative = inhibition) at 1uM [%]"
1,Cc1c(O)c2c3c(cccc3c1O)C(=O)N(c1ccccc1)C2=O,3.61
2,CCCSc1ncccc1C(=O)O,12.4
3,Cn1c(O)c(/C=C2\C=Nc3ccccc32)sc1=Nc1ccc(C(=O)O)cc1,-6.16
4,CC1=NN(C(=S)Nc2ccccc2)C(c2ccccc2)C1 (centres unmarked),7.61
5,Cc1cccc(NS(=O)(=O)c2ccc(C3CCCCC3)cc2)c1,16.6
6,CCOC(=O)C1(Cc2cccc(OC)c2)CCN(CC=C(C)C)CC1,12.5
7,Cc1ccc(C(=O)NCC(=O)NCCc2ccc(S(N)(=O)=O)cc2)s1,6.16
8,CC(=O)NNC(=O)C(O)(c1ccccc1)c1ccccc1,6.17
9,CC(C)(C)C(=O)Nc1ccccc1C(=O)NCCC(=O)Nc1ccccc1,5.94
10,CC(=O)NC(c1ccco1)c1cc(Cl)c2ccccc2c1O (centres unmarked),3.56
11,COC(=O)c1cccc(C(=O)N2CCC(CO)(Cc3ccccc3Cl)CC2)c1,6.56
12,CC(=O)C1=NOC(CNc2ncc(C(F)(F)F)cc2Cl)C1 (centres unmarked),16.9
13,COCCC(=O)N1CCCC(C(=O)c2ccc3c4c(cccc24)CC3)C1 (centres unmarked),1.52
14,Cc1nn2c(NCCCN(C)C)c3c(nc2c1-c1ccccc1)CCC3,-13.4
15,NNc1nc2sc3c(c2c(=O)n1-c1ccccc1)CCCC3,10.4
16,Cn1c(SCc2cc([N+](=O)[O-])cc3c2OCOC3)nnc1-c1ccccn1,7.91
17,COc1ccc(C2CC(=O)C3=C(C2)Nc2ncnn2C3c2ccccc2)cc1 (centres unmarked),-5.14
18,CC(=O)c1c(C)[nH]c(C(=O)OCC(=O)NCCc2ccc(F)cc2)c1C,-1.47
19,O=S(=O)(Nc1ccccc1N1CCCCC1)c1ccccc1,-0.354
20,Cc1ccc2c(COC(=O)c3ccc(C)c(C)c3)cc(=O)oc2c1,18.9
21,CC1=C(C(=O)Nc2ccc(C)cn2)C(c2cnn(C)c2)C2=C(CCCC2=O)N1 (centres unmarked),11.5
22,O=C1C2CCC(C(O)C2)N1Cc1ccccc1 (centres unmarked),0.542
